Measured values: PubChem BioAssay AID651820 (National Center for Advancing Translational Sciences (NCATS), 2012)
In all, about 340,000 compounds went through this assay and about 12,000 (3.5%) were called active. The inconclusive results got no clear call from the source; some entries with a clear call stand among them for comparison. Calls come from the whole dose curve; as a rule, active = well fitted inhibition curve with a large enough effect; inconclusive = small, poorly fitted or top-dose-only effect, or another doubt; inactive = no such curve, though single readings can be large or run the other way. No potency is given beside an inconclusive call; the fits are too rough.

Assay: qHTS Assay for Inhibitors of Hepatitis C Virus (HCV)
Conditions: Huh7.5.1 HCVcc-Cre (HCVcc is cell-culture hepatitis C virus) infection, luciferase reporter, 44 h; activity change, negative = inhibition: at 41.8 µM (top of the series) unless noted
Procedure, shortened: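 Cells seeded at 1,000/well and cultured 4 h, then compounds added followed by HCVcc-Cre virus (~0.5 moi). After 44 h further culture, luciferase substrate was added, plates held 15 min at room temperature, and luminescence read for 15 sec.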
% is set by controls: 0 for no effect and ±100 for the full control effect; potency is the fitted concentration of half-maximal effect; tags give direction and shape of the fitted curve.

Row | SMILES | activity change, negative = inhibition | Potency
1 | O=C(Nc1ccccc1O)c1ccc(Cl)cc1 | inactive: -17% | –
2 | Cc1cc(NC(=O)CSc2nc3c([nH]c4ccccc43)c(=O)n2-c2ccccc2F)no1 | – | inconclusive [inhibitor, partial curve]
3 | c1ccc(Cn2ncc3c(Nc4ccccc4)ncnc32)cc1 | – | inconclusive [inhibitor, single point]
4 | CCOC(=O)/C=C1\CN(Cc2cc(OC)c(OC)c(OC)c2)S(=O)(=O)c2ccc(C(F)(F)F)cc21 | – | inconclusive [inhibitor, full curve, poor fit]
5 | Cc1cc(N/N=C/c2ccccc2O)nc(-c2ccccc2O)n1 | – | inconclusive [inhibitor, single point]
6 | CCC1=Nc2cc(C(=O)NCC3CCCO3)ccc2Sc2ccc(Cl)cc21 (centres undefined) | – | inconclusive [inhibitor, partial curve]
7 | CCCOP(=O)(OCCC)C(Nc1ccc(C(C)C)cc1)c1ccc([N+](=O)[O-])cc1 (centres undefined) | – | inconclusive [inhibitor, single point]
8 | CCCCCCc1cc2cc(C(=O)Nc3ccc(OC)cc3)c(=O)oc2cc1O | – | inconclusive [inhibitor, partial curve]
9 | CCOC(=O)c1c(NC(=O)CSc2nnc(CNc3ccc(Cl)cc3)o2)sc(C)c1C | – | inconclusive [inhibitor, single point]
10 | CCOc1ccc(CCNC(=O)CS(=O)Cc2nc(-c3ccc(OC)cc3)oc2C)cc1OCC (centres undefined) | – | inconclusive [inhibitor, partial curve]
11 | Cc1cccnc1NC(=S)NCc1ccco1 | inactive: -10.9% | –
12 | Fc1ccc(C[n+]2c(-c3ccccc3)cc(-c3ccccc3)cc2-c2ccccc2)cc1 | – | active: 10 µM
13 | CCOC(=O)N1CCN(C(=O)COc2cc(=O)n(CC)c3ccccc23)CC1 | inactive: 3.46% | –
14 | NC(=O)c1ccc[n+](CCC[n+]2cccc(C(N)=O)c2)c1 | inactive: 0.188% | –
15 | O=C(c1cn(-c2ccccc2)nc1-c1cccc([N+](=O)[O-])c1)N1CCCCC1 | – | inconclusive [inhibitor, full curve]
16 | CCOCCCn1c(=NC(C)=O)c(C#N)cc2c(=O)n3ccccc3nc21 | – | inconclusive [inhibitor, single point]
17 | Cc1ccc(NC=C(S(=O)(=O)c2ccccc2)S(=O)(=O)c2ccccc2)c(C)c1 | inactive: -2.06% | –
18 | CCOc1ccc(NC(=O)CN2CCN(CC(=O)Nc3ccccc3OC)CC2)cc1 | – | inconclusive [inhibitor, partial curve]
19 | Cc1ccc(C2=NCCn3c2c2ccc([N+](=O)[O-])cc2[n+]3[O-])cc1 | – | inconclusive [inhibitor, partial curve]
20 | O=C(Nc1ncc([N+](=O)[O-])s1)C1CCN(S(=O)(=O)c2cnc[nH]2)CC1 | inactive: 9.21% | –
21 | CCC(C(=O)OC)n1cnc2c(cnn2-c2ccc(Cl)cc2)c1=O (centres undefined) | – | inconclusive [inhibitor, single point]
22 | CCCCCCSc1ccc([C@@H]2[C@@H]3C(=O)N(C)C(=O)[C@@H]3[C@]3(C(=O)OC)CCCCN23)cc1 | inactive: 7.26% | –

Row | SMILES | activity change, negative = inhibition | Potency
23 | Cn1c(-c2ccccc2)cc2c3no[n+]([O-])c3ccc21 | – | active: 2.51 µM
24 | N#CC1(NC(=O)CSc2nc3ccccc3s2)CCCCC1 | – | inconclusive [inhibitor, partial curve]
25 | CCOC(=O)C1CCN(S(=O)(=O)c2ccc(NC(=O)OC)cc2)CC1 | – | inconclusive [inhibitor, partial curve, poor fit]
26 | Cc1cc(Cl)ccc1OCC(=O)NNC(=O)c1ccc(=O)[nH]c1 | inactive: 16.6% | –
27 | COC(=O)c1ccc(C2OCC(C)(C)CO2)cc1 | inactive: 6.7% | –
28 | COCCCNC(=O)CCc1ccccc1 | – | inconclusive [inhibitor, single point]
29 | COc1ccc(CN([C@H](C)CO)S(=O)(=O)N(Cc2ccccc2)[C@H](CO)C(C)C)cc1 | – | inconclusive [inhibitor, single point]
30 | CCOc1cc(N2CCOCC2)c(OCC)cc1NC(=O)c1cc(S(=O)(=O)N2CCOCC2)ccc1F | – | inconclusive [inhibitor, single point]
31 | N/C(=N\N=C/c1ccc(-c2ccc(O)c(C(=O)O)c2)o1)N[N+](=O)[O-] | inactive: 3.58% | –
32 | CN(C)CCCN(Cc1ccccc1)C(=S)Nc1cccc(C(F)(F)F)c1 | – | active: 11.2 µM
33 | Cc1ccnc(NC(=O)CCCOc2cc(=O)n(C)c3ccccc23)c1 | – | active: 3.55 µM
34 | Cc1cc(NC(=O)C(C)C)n(-c2nc3ccccc3s2)n1 | – | inconclusive [inhibitor, full curve]
35 | CN(CC(=O)Nc1ccccc1Cl)C(=O)COC(=O)c1cc([N+](=O)[O-])ccc1N1CCOCC1 | – | inconclusive [inhibitor, single point]
36 | CCOC(=O)C1=C(C)NC(C)=C(C(=O)OCC)C1C(=O)OCC(=O)N(C)Cc1ccccc1 | – | inconclusive [inhibitor, single point]
37 | COc1ccc(/C=C2/C(=O)ON=C2C)cc1Br | – | inconclusive [inhibitor, partial curve]
38 | c1ccc(Cc2noc(CN3CCCN(C4Cc5ccccc5C4)CC3)n2)cc1 | – | inconclusive [inhibitor, single point]
39 | CC1CCN(C(=S)c2ccc(N(C)C)cc2)CC1 | – | inconclusive [inhibitor, single point]
40 | COC(=O)C1=C(c2cccc(OCc3ccccc3)c2)C[C@@H]2CC[C@H]1N2C(=O)NCc1cccc(F)c1 | inactive: -26.4% | –
41 | O=C(NCCCn1ccnc1)c1ccc(COc2ccccc2)o1 | inactive: -0.417% | –
42 | Nc1nc(-c2cccnc2)nc(N2CCCCC2)n1 | – | inconclusive [inhibitor, single point]
43 | O=C(CCc1nc(-c2ccccc2)c(-c2ccccc2)o1)OCc1ccc(Cl)cc1 | – | inconclusive [inhibitor, single point]
44 | CSCCC(NC(=O)c1ccccc1Cl)C(=O)NCC(c1ccc(F)cc1)N1CCOCC1 (centres undefined) | inactive: 9.57% | –
